Measurements taken from article PMC13083723 (Patterns, 2026).
Among all 5,400 compounds or so, about 190 (3.5%) showed an effect of 50% or more. Some of the results follow.

Test system: Vero-E6
Assay: primary screen, phospholipidosis by LipidTOX staining; higher = more effect of the substance
Details: 10 µM
Outline: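 Drug-induced phospholipidosis detected with HCS LipidTOX Red reagent in Vero-E6 cells. Compounds tested at 10 μM, with amiodarone (10 μM) as positive control and DMSO (0.1 v/v %) as vehicle.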

Structure (SMILES) | result_ITMP
O=C(NCCCN1CCOCC1)c1cnn2c(-c3ccccc3)cc(-c3ccccc3)nc12 | -1.74%
Cn1c(=O)c2c(ncn2CC2OCCO2)n(C)c1=O | -5.28%
Oc1cc2c(cc1O)C(c1ccccc1)CNCC2 (stereo not drawn) | -1.04%
CN(C)C/C=C/C(=O)Nc1cccc(C(=O)Nc2cccc(Nc3ncc(Cl)c(-c4c[nH]c5ccccc45)n3)c2)c1 | 1.73%
CC(C)NC[C@@H](C(=O)N1CCN(c2ncnc3c2[C@H](C)C[C@H]3O)CC1)c1ccc(Cl)cc1 | 3.29%
Cc1ccc([C@@H]2O[C@H](CO)[C@@H](O)[C@H](O)[C@H]2O)cc1Cc1ccc(-c2ccc(F)cc2)s1 | 2.27%
CC(C)(C)c1cc(C(C)(C)C)c(NC(=O)c2c[nH]c3ccccc3c2=O)cc1O | -5.08%
CC(=O)N(CC(O)CO)c1c(I)c(C(=O)NCCO)c(I)c(C(=O)NCC(O)CO)c1I (stereo not drawn) | -7.35%
CN1CCN(CC(=O)N2c3ccccc3C(=O)Nc3cccnc32)CC1 | -4.07%
Cc1cc(=O)n(-c2ccccc2)[nH]1 | -1.09%
Cc1cc(/C=c2/sc3nc4ccccc4n3c2=O)c(C)n1-c1ccccc1 | -4.34%
O=C([O-])C(O)C(O)C(O)C(O)CO (stereo not drawn) | -6.08%
CC1(C)[C@H]2CC[C@]1(C)[C@@H](O)[C@H]2O | -7.7%
CCCCCCCCCCCCOS(=O)(=O)[O-] | -3.59%
CCCCCCCCCCCCCCCC[N+](C)(C)Cc1ccccc1 | -3.16%
CCOC(=O)[C@H]1O[C@@H]1C(=O)N[C@@H](CC(C)C)C(=O)NCCC(C)C | -5.05%
Nc1ncnc2[nH]nc(Nc3ccc(F)cc3)c12 | -1.75%
Cn1cc[nH]c1=S | -2.34%
CC(C)C[C@H](NC(=O)[C@@H](COC(C)(C)C)NC(=O)[C@H](Cc1ccc(O)cc1)NC(=O)[C@H](CO)NC(=O)[C@H](Cc1c[nH]c2ccccc12)NC(=O)[C@H](Cc1cnc[nH]1)NC(=O)[C@@H]1CCC(=O)N1)C(=O)N[C@@H](CCCN=C(N)N)C(=O)N1CCC[C@H]1C(=O)NNC(N)=O | -2.88%
COc1ccccc1OC(=O)c1ccccc1OC(C)=O | 1.91%
O=C(O)CC(S)C(=O)O (stereo not drawn) | -4.92%
CO[C@@H]1[C@@H](OC(N)=O)[C@@H](O)[C@H](Oc2ccc3c([O-])c(NC(=O)c4ccc(O)c(CC=C(C)C)c4)c(=O)oc3c2C)OC1(C)C | -3.28%

Structure (SMILES) | result_ITMP
CCOC(=O)C(=O)Nc1cccc(OC)c1C(N)=O | -3.58%
COc1ccc2[nH]c(SCc3ncc(C)c(OC)c3C)nc2c1 | -4.05%
Oc1c(CN2CCCC2)cc(COCc2ccccc2)c2cccnc12 | -1.35%
NCCCCCC(=O)O | -1.72%
CC(C)CCNC(=O)[C@H](CC(C)C)NC(=O)[C@H]1O[C@@H]1C(=O)O | -2.18%
O=c1[nH]c2ccccc2c(=O)n1CCCN1CCN(c2ccccc2)CC1 | -3.31%
c1ccc2c(CCNc3ccc(Nc4ccncc4)cc3)c[nH]c2c1 | 74%
CCCCCCCCCCCCCCCCCCCCCC(=O)O | -4.46%
COc1ccc2c(Oc3ccc(NC(=O)c4c(C)n(CC(C)(C)O)n(-c5ccccc5)c4=O)nc3)ccnc2c1 | -2.93%
COc1c(C)cnc(Cn2cnc3c(Cl)nc(N)nc32)c1C | -3.87%
Cc1ccc2c(c1)C(=O)[C@]1(O)CCN(c3ccccc3)C1=N2 | -2.25%
CN(C)C(=N)NC(=N)N | 2.14%
Cc1nc2c([nH]1)-c1ccccc1N(C(=O)c1ccc(NC(=O)c3ccccc3-c3ccccc3)cc1)CC2 | 15.4%
CC(C)Oc1ccc(-c2cnc3c(-c4ccnc5ccccc45)cnn3c2)cc1 | -4.25%
CC1=C(C)C(=O)C(C(CCCCCC(=O)O)c2ccccc2)=C(C)C1=O (stereo not drawn) | -2.21%
CCCCCCCCCCCCCCCC(=O)OC[C@H](O)[C@H]1OC(=O)C(O)=C1O | 1.78%
NC(=O)C[C@H](N)C(=O)O | -8.16%
C[C@@]1(CO)[C@H](O)CC[C@@]2(C)[C@H]1CC[C@H]1C[C@@H]3C[C@@]12CC[C@]3(O)CO | 0.12%
C[C@@H]1CC[C@H]2C(C)(C)[C@H]3C[C@@]12CC[C@@]3(C)O | 4.78%
C#Cc1cncc([C@@H]2CCCN2C)c1 | -2.09%
COC1/C=C\OC2(C)Oc3c(C)c(O)c4c(O)c(cc([O-])c4c3C2=O)NC(=O)/C(C)=C\C=C/C(C)C(O)C(C)C(O)C(C)C(OC(C)=O)C1C (stereo not drawn) | -0.32%
N#C/C(=C\c1ccc(O)c(O)c1)C(=O)NCCCCc1ccccc1 | 3.86%

Structure (SMILES) | result_ITMP
CC(NC(C)(C)C)C(=O)c1cccc(Cl)c1 (stereo not drawn) | 4.52%
Cc1csc(-c2nnc(Nc3ccc(Oc4ncccc4-c4ccnc(N)n4)cc3)c3ccccc23)c1 | 24.6%
Nc1nc2c(ncn2COC(CO)CO)c(=O)[nH]1 | 1.51%
Nc1ccn([C@H]2C[C@H](O)[C@@H](CO)O2)c(=O)n1 | -1.56%
O=C(O)CC(=O)C(=O)O | -7.37%
COC(=O)[C@H](CC(C)C)NC(=O)[C@H](N)CC(C)C | -1.49%
CCN(CC)c1ccc(/C=N/NC(=O)c2ccc(O)cc2)cc1 | -5.55%
Cc1ncc(CO)c(C=O)c1O | -2.29%
CC(C)c1cccc2c(-c3ccccc3)cc(-c3ccc(-c4ccc(C(=O)O)cc4)[nH]3)nc12 | -2.63%
CO[C@H]1/C=C/O[C@@]2(C)Oc3c(C)c(O)c4c(O)c(c5c(nc6cc(C)ccn65)c4c3C2=O)NC(=O)/C(C)=C\C=C\[C@H](C)[C@H](O)[C@@H](C)[C@@H](O)[C@@H](C)[C@H](OC(C)=O)[C@@H]1C | -3.34%
CCNCCS(=O)(=O)NC[C@@]1(c2ccccc2)SC(NC(=O)C(C)(C)C)=NN1C(=O)C(C)(C)C | -1.01%
CN1CCC2=C(C1)c1ccccc1Cc1ccccc12 | 52.7%
O=C1[C@H]2CCCC[C@H]2C(=O)N1CCCCN1CCN(c2nsc3ccccc23)CC1 | 14.6%
Cc1cnc(Nc2ccc(OCCN3CCCC3)cc2)nc1Nc1cccc(S(=O)(=O)NC(C)(C)C)c1 | 122%
c1ccc(Cn2c(N3CCNCC3)nc3ccccc32)cc1 | 51.9%
Cn1ncnc1[C@H]1c2n[nH]c(=O)c3cc(F)cc(c23)N[C@@H]1c1ccc(F)cc1 | -5.75%
C=CCN(C)CCCCCCOc1ccc(C(=O)c2ccc(Br)cc2)c(F)c1 | 92.9%
COc1ccc(Cl)c(Nc2nc3ccccc3nc2NS(=O)(=O)c2cccc(NC(=O)C(C)(C)N)c2)c1 | -0.79%
CCCNC(=O)NS(=O)(=O)c1ccc(Cl)cc1 | -1.26%
CCN(CC)C(C)CN1c2ccccc2Sc2ccccc21 (stereo not drawn) | 63.9%
CC(=O)O[C@]1(C(C)=O)CC[C@H]2[C@@H]3C=C(Cl)C4=CC(=O)CC[C@]4(C)[C@H]3CC[C@@]21C | -1.88%
CN1CCN(CCc2ccc(Cl)c(Cl)c2)CC1 | 18.2%

Structure (SMILES) | result_ITMP
CCCCCCCCCCC(=O)O[C@H]1CC[C@H]2[C@@H]3CCC4=CC(=O)CC[C@]4(C)[C@H]3CC[C@]12C | 0.88%
COc1ccc(-c2nc(N3CCOCC3)c3sc(CN(C)c4ncc(C(=O)NO)cn4)cc3n2)cn1 | -0.46%
COc1cc(-c2ncn(/C=C\C(=O)OC(C)C)n2)cc(C(F)(F)F)c1 | 4.15%
CN(CCCN1c2ccccc2CCc2ccccc21)CC(=O)c1ccc(Cl)cc1 | 13.8%
CCS(=O)(=O)N1CC(CC#N)(n2cc(-c3ncnc4[nH]ccc34)cn2)C1 | 0.97%
O=C(Nc1c[nH]nc1-c1nc2cc(CN3CCOCC3)ccc2[nH]1)NC1CC1 | 14.8%
O=C1NCC2(CCN(CCc3ccccc3)CC2)O1 | -1.69%
CCCCC/C=C\C/C=C\CCCCCCCC(=O)NCCCC(=O)O | -1.7%
Clc1ccc2c(c1)CCc1cccnc1C2=C1CCNCC1 | 18.1%
O=C(NC1(c2ccccc2)CC1)c1c(CN2CCC(N3CCCCC3)CC2)c(-c2cccc(C(F)(F)F)c2)nc2cc(Br)ccc12 | 35.3%
Nc1nc(NCCNc2ncc(-n3ccnc3)c(-c3ccc(Cl)cc3Cl)n2)ccc1[N+](=O)[O-] | -6.78%
O=C([O-])CCC/C=C\C[C@@H]1[C@@H](/C=C/[C@@H](O)COc2cccc(Cl)c2)[C@H](O)C[C@@H]1O (racemic) | -1.06%
CC1(C)OC[C@@H](COC(=O)CCc2ccc(OC[C@@H](O)CNCCNC(=O)N3CCOCC3)cc2)O1 | -3.76%
Cc1[nH]cnc1CN1CCc2c(c3ccccc3n2C)C1=O | 0.22%
O=S(=O)(c1cccc2c(O)nccc12)N1CCCNCC1 | -2.3%
Cc1cc(-c2ccc3c(c2)CC[C@H]3N2CC3(CCN(C(=O)Cc4cn5cc(C)sc5n4)CC3)C2)ncn1 | -1.47%
O=C(O)CCc1ccc(NCc2cccc(Oc3ccccc3)c2)cc1 | -4.86%
O=C(O)[C@H]1CC[C@H](c2cc3cccnc3c(-c3cccc(F)c3)n2)CC1 | -0.01%
O=C(Cn1c(=O)sc2ccc(Cl)cc21)N1CCN(CCO)CC1 | -3.14%
CC(C)c1ccccc1Cc1cc(C(=O)Nc2ccc(S(=O)(=O)c3ccccc3C(C)(C)C)cc2)c(O)c(O)c1O | -10.3%
CC(=O)O[C@@H]1C[C@H]2C(C)(C)C(=O)C=C[C@]2(C)[C@H]2CC[C@@]3(C)[C@H](c4ccoc4)OC(=O)[C@H]4O[C@]43[C@@]21C | 4.73%
